Laboratory results published in ChEMBL document CHEMBL4888484, “Replenishing the malaria drug discovery pipeline: Screening and hit evaluation of the MMV Hit Generation Library 1 (HGL1) against asexual blood stage Plasmodium falciparum ,using a nano luciferase reporter read-out” (2022).
Among all 150,000 compounds or so, about 540 (0.36%) showed an effect of 50% or more. Some of the results follow.

These molecules were tested on Plasmodium falciparum (assay: Primary screen in NF54 nanoGlo assay, in single point, at 2uM, 72h; a lower Z score goes with more inhibition). Settings: timepoint 72 hour.
Format: functional, Erythrocyte
With CCCCc1nc(N2CCN(C(=O)c3ccc(F)cc3)CC2)c2c(-c3ccccc3)noc2n1 the “% Inhibition” value was -1% and the Z score was 0.13.
With CC1CN(C(=O)CCCS(=O)(=O)N2CCCC2)C(C)CN1C (stereo unspecified) the “% Inhibition” value was 0% and the Z score was -0.05.
Cc1cc(NC(=O)N2CCC[C@@H]2CS(N)(=O)=O)nn1C was tested, and the “% Inhibition” value was 3% and the Z score was -0.45.
CCOc1cccc(C(=O)N[C@H]2CCN(Cc3ccccn3)C[C@@H]2O)c1 was tested, and the “% Inhibition” value was 2% and the Z score was -0.4.
In the case of NC(=O)c1c[nH]c(-c2noc(C3CCc4ccccc4CC3)n2)c1, the “% Inhibition” value is reported as -6% and the Z score is reported as 0.71.
For COc1ccc(F)cc1-c1c(-c2ccccc2)ncn1CCc1cnccn1, the “% Inhibition” value was -9% and the Z score was 0.85.
For COc1ccc(-c2n[nH]c(C3CC3)c2NC(=O)c2ccc(OC)c(OC)c2)c(OC)c1, the “% Inhibition” value was -3% and the Z score was 0.56.
For N#CCOc1cc(OCC#N)c(Cl)cc1Cl, the “% Inhibition” value was -16% and the Z score was 3.01.
With O[C@H]1CN(Cc2ccc(-n3ccnc3)cc2)CC[C@@H]1c1ccc(F)cc1 the “% Inhibition” value was -4% and the Z score was 0.51.
In the case of Cc1cc(S(N)(=O)=O)sc1C(=O)N[C@H]1CCc2ccccc21, the “% Inhibition” value is reported as -10% and the Z score is reported as 1.24.
For CC(CNC(=O)NC(C)C1CCOCC1)c1cccs1 (stereo unspecified), the “% Inhibition” value was -13% and the Z score was 1.74.
In the case of COCCn1nnc2cc(S(=O)(=O)N3CCC[C@H](C(=O)NC4CC4)C3)ccc21, the “% Inhibition” value is reported as -20% and the Z score is reported as 3.23.
CNC(=O)C[C@H](C)N(C)C(=O)c1cc(C)c(C)[nH]c1=O was tested, and the “% Inhibition” value was -5% and the Z score was 0.79.
With Cc1ncccc1Oc1ncnc(N[C@H]2CCS(=O)(=O)C2)c1C the “% Inhibition” value was -5% and the Z score was 0.5.
In the case of COc1ccc(NS(=O)(=O)c2ccc(N3CCOCC3)c(N)c2)cc1, the “% Inhibition” value is reported as -4% and the Z score is reported as 0.46.
For COc1ccc(CN(CCC(C)C)C[C@H](O)COC(C)(C)C)cc1OC, the “% Inhibition” value was -5% and the Z score was 0.78.
For COc1cncc(Br)c1N, the “% Inhibition” value was -1% and the Z score was 0.11.
For COCCNC(=O)c1nn(CCC(C)C)c2c1CN(C(=O)c1cc(C)nn1C)CC2, the “% Inhibition” value was -1% and the Z score was 0.08.
With CCCn1cc(-c2cc(C(=O)N3CCC[C@@H]3C)c3ccc(C)c(C)c3n2)cn1 the “% Inhibition” value was 7% and the Z score was -1.05.
In the case of COCCCNC(=O)CCn1cnc2c(-c3ccc(F)cc3)noc2c1=O, the “% Inhibition” value is reported as 0% and the Z score is reported as -0.06.
In the case of O=C(O)C[C@@H]1CCN(C(=O)c2ccco2)C[C@@H]1CCN1CCN(c2ccccc2)CC1, the “% Inhibition” value is reported as 25% and the Z score is reported as -2.87.
In the case of CC(C)CS(=O)(=O)[C@H]1CCCN(C(=O)NC(c2ccccc2)c2ccccc2)C1, the “% Inhibition” value is reported as -16% and the Z score is reported as 2.07.
CS(=O)(=O)N1C[C@H]2CC[C@@H](C1)N(C(=O)c1ccc3[nH]nnc3c1)C2 was tested, and the “% Inhibition” value was -7% and the Z score was 1.17.
With Cc1cnc(-n2ncc(C(=O)N3CCCC3)c2C2CC2)nc1-c1cccs1 the “% Inhibition” value was -6% and the Z score was 0.66.
O=C(Nc1ccc(Cl)cc1)[C@H]1CCCC[C@H]1C(=O)NCc1cc[nH]n1 was tested, and the “% Inhibition” value was -21% and the Z score was 2.63.
With O=C([C@@H]1COc2cc(S(=O)(=O)NCc3ccc4c(c3)OCO4)ccc2O1)N1CCOCC1 the “% Inhibition” value was 10% and the Z score was -1.04.
In the case of Cc1cccc([C@@H](NC(=O)c2ccccc2-c2nnn[nH]2)C2CC2)n1, the “% Inhibition” value is reported as -4% and the Z score is reported as 0.58.
CCc1ccc([C@H](COC)NS(=O)(=O)CCCN(C)C)o1 was tested, and the “% Inhibition” value was 0% and the Z score was -0.02.
In the case of CCC[C@@H]1NC(C)(C)N(CCOC)C1=O, the “% Inhibition” value is reported as -10% and the Z score is reported as 1.16.
In the case of COCc1nc(CNC(=O)COc2ccccc2Cl)no1, the “% Inhibition” value is reported as -10% and the Z score is reported as 1.62.
With NS(=O)(=O)N1CC(O)CC1C1CCCCC1 (stereo unspecified) the “% Inhibition” value was -6% and the Z score was 0.83.
For COC(=O)c1ccc2c(c1)NCC1(CC1)O2, the “% Inhibition” value was -5% and the Z score was 0.96.
For O=C(N[C@H]1CCCCNC1=O)C1CCCCC1, the “% Inhibition” value was -6% and the Z score was 0.77.
CCCCCNC(=O)NCc1ncoc1C was tested, and the “% Inhibition” value was 31% and the Z score was -0.39.
Clc1ccc(CN2CCO[C@@H](Cn3cccn3)C2)s1 was tested, and the “% Inhibition” value was -9% and the Z score was 0.84.
CN(C[C@@H]1CC=CCC1)S(=O)(=O)CC1CN(S(C)(=O)=O)C1 was tested, and the “% Inhibition” value was -2% and the Z score was 0.25.
For COc1cc(C(=O)Nc2ccc3nn(-c4cccc5ccccc45)nc3c2)cc(OC)c1OC, the “% Inhibition” value was 9% and the Z score was -1.44.
In the case of COc1ccccc1N1CCN(c2nc(Nc3ccc(C)c(C)c3)c3nccnc3n2)CC1, the “% Inhibition” value is reported as -10% and the Z score is reported as 1.56.
For C[C@H]1CN(C(=O)c2cc(C#N)cn2C)CCS1(=O)=O, the “% Inhibition” value was -10% and the Z score was 0.84.
COc1cccc(CN(Cc2scnc2C)C2CCC(O)CC2)c1 (stereo unspecified) was tested, and the “% Inhibition” value was -3% and the Z score was 0.23.
For Cc1oc(-c2cccc(F)c2)nc1CN1CC[C@]2(CCCO2)CCC1=O, the “% Inhibition” value was -12% and the Z score was 2.15.
In the case of CN1CCC2(CC1)CCN(S(=O)(=O)c1c(F)cccc1F)C2, the “% Inhibition” value is reported as -8% and the Z score is reported as 1.5.
O=C(Cc1cccnc1)N[C@H]1CCN(c2ccc(Cl)c(F)c2)C1 was tested, and the “% Inhibition” value was -6% and the Z score was 0.71.
For O=C(c1cccnc1)N1C[C@@H]2C[C@@H](O)CN2C2(CN(Cc3ccc4c(c3)OCO4)C2)C1, the “% Inhibition” value was 1% and the Z score was -0.13.
With CC1CCCCC1NC(=O)c1ccc(-n2cccn2)nn1 (stereo unspecified) the “% Inhibition” value was -9% and the Z score was 1.75.
For CCCn1cc(NC(C)C2CCCN(C(=O)OC(C)(C)C)C2)cn1 (stereo unspecified), the “% Inhibition” value was -6% and the Z score was 0.87.
For Cc1cccc(N2CCN(C(=O)c3nc4cccnc4n(C)c3=O)CC2)c1C, the “% Inhibition” value was 3% and the Z score was -0.38.
With COCC(=O)Nc1cnn(-c2cccc(C(=O)N3CCN(c4cccc(OC)c4)C(=O)C3)c2)c1 the “% Inhibition” value was -11% and the Z score was 2.14.
In the case of Cc1n[nH]c(C)c1NC(=O)Nc1ccnn1Cc1cccs1, the “% Inhibition” value is reported as -10% and the Z score is reported as 1.09.
Cc1cccc(CN(Cc2ccccc2)C(=O)c2nnc(C)o2)n1 was tested, and the “% Inhibition” value was 4% and the Z score was -0.55.
In the case of COC(=O)C[C@H](c1c(Cc2ccc(OC)cc2)[nH][nH]c1=O)c1ccnn1C(C)C, the “% Inhibition” value is reported as -12% and the Z score is reported as 1.58.
With O[C@H](COc1ccc(F)cc1)Cn1nnc(-c2ccco2)n1 the “% Inhibition” value was -9% and the Z score was 1.55.
CN(CCc1ccccc1)[C@@H]1[C@H](O)[C@H](CO)O[C@@H]1CNC1CCCCC1 was tested, and the “% Inhibition” value was 9% and the Z score was -1.1.
For O=C(C1CCCC1)N1CCN(C[C@H](O)c2ccco2)CC1, the “% Inhibition” value was -5% and the Z score was 0.77.
For Cc1nocc1Cc1noc(Nc2ccccc2)n1, the “% Inhibition” value was -15% and the Z score was 2.59.
In the case of CC1(C)CN(S(=O)(=O)CC2CCCCC2(F)F)C1c1cccnc1 (stereo unspecified), the “% Inhibition” value is reported as 14% and the Z score is reported as -1.77.
For Cc1ccc(S(=O)(=O)c2ccc(C(=O)NC(C)C)s2)cc1, the “% Inhibition” value was 0% and the Z score was 0.02.
O=C(Nc1ccccc1N1CCCN(Cc2ccc(OC(F)(F)F)cc2)C1=O)OCc1ccccc1 was tested, and the “% Inhibition” value was 9% and the Z score was -1.85.
In the case of O=C(c1cnn2c(-c3ccc(Cl)c(Cl)c3)ccnc12)N1CCc2ccccc2C1, the “% Inhibition” value is reported as -17% and the Z score is reported as 3.01.
In the case of CCCCS(=O)(=O)N[C@@H](C)Cn1cncn1, the “% Inhibition” value is reported as 2% and the Z score is reported as -0.18.
For COc1ccc(CNC(=O)Cn2c(=O)n(C)c(=O)c3c2c(-c2ccccc2)cn3C)cc1OC, the “% Inhibition” value was -10% and the Z score was 1.58.
For O=C(NCCCc1nc(=O)[nH][nH]1)C1CCCCCC1, the “% Inhibition” value was 10% and the Z score was -1.02.
With COc1ccc(N[C@@]2(c3ccccc3)c3ccccc3C(=O)N2c2ccc(OC)cc2)cc1 the “% Inhibition” value was 3% and the Z score was -0.38.
With CCN(CC)C(=O)c1nc(CNC(=O)c2cccn2C)oc1C the “% Inhibition” value was -17% and the Z score was 2.25.
With COc1ccc2c(c1)CN(C(=O)C(C)N)C(c1ccccc1)C2 (stereo unspecified) the “% Inhibition” value was 15% and the Z score was -1.67.
In the case of Cc1cc(C)nc(N2CCN(C(=O)Nc3cccc(-c4cnc[nH]4)c3)CC2)n1, the “% Inhibition” value is reported as -8% and the Z score is reported as 1.52.
With O=C(Nc1nc2c(s1)CN(Cc1ccccc1)CC2)[C@H]1CCS(=O)(=O)C1 the “% Inhibition” value was 12% and the Z score was -2.18.
For CN(Cc1cscn1)C(=O)C1CC12CCCc1ccccc12 (stereo unspecified), the “% Inhibition” value was -13% and the Z score was 2.47.
With Cc1ccc(S(=O)(=O)Nc2ccc(C)n(CC(=O)N3CCCN(C)CC3)c2=O)cc1 the “% Inhibition” value was -13% and the Z score was 1.72.
C[C@@H](CCc1cccn1C)Nc1ccccc1S(C)(=O)=O was tested, and the “% Inhibition” value was 1% and the Z score was -0.21.
In the case of O=C(O)c1ccnc(Oc2ccc(Cl)cc2C2CCCCC2)c1, the “% Inhibition” value is reported as 5% and the Z score is reported as -0.61.
With c1ccc(CNc2ncc(CN3CC(c4cccnc4)C3)cn2)cc1 the “% Inhibition” value was -4% and the Z score was 0.73.
Cc1cc(C)c(CNC(=O)COCC(F)(F)C(F)F)cn1 was tested, and the “% Inhibition” value was -11% and the Z score was 1.39.
CCOCCCN(CCC(=O)N[C@@H](C)CC)C(=O)c1cnccn1 was tested, and the “% Inhibition” value was -14% and the Z score was 1.99.
Cc1cc(C(=O)N2CCN[C@H](c3cccc(Cl)c3)C2)[nH]n1 was tested, and the “% Inhibition” value was -3% and the Z score was 0.44.
For Cc1cccc(OCC(=O)N2C3CCC2Cn2c(nn(CC(C)C)c2=O)C3)c1 (stereo unspecified), the “% Inhibition” value was -8% and the Z score was 0.96.
With CC[C@@]1(C)CC(=O)c2cc(NC(=O)N3CCc4n[nH]cc4C3)ccc2O1 the “% Inhibition” value was -1% and the Z score was 0.14.
C[C@]1(O)CCN(C(=O)c2cnc(N)nc2C(F)(F)F)C[C@@H]1O was tested, and the “% Inhibition” value was -3% and the Z score was 0.36.
CN(Cc1cnc(NC[C@H]2CCCO2)nc1)Cc1ccsc1 was tested, and the “% Inhibition” value was 0% and the Z score was 0.07.
In the case of CCc1cc([C@H](C)n2ccnc2-c2ccc(NC(C)=O)cc2)on1, the “% Inhibition” value is reported as -7% and the Z score is reported as 1.01.
For CCC1CCN(C(=O)C[C@@H]2NC(=O)N(c3ccc(F)cc3)C2=O)CC1, the “% Inhibition” value was -10% and the Z score was 1.5.
For C[C@H]1CN(C(=O)c2cc(-c3ccccc3)on2)c2ccccc2O1, the “% Inhibition” value was -2% and the Z score was 0.24.
With COc1cccc(C2(CC(=O)N3CC4CCC3C4)CC(=O)N(CCN(C)C)C2=O)c1 (stereo unspecified) the “% Inhibition” value was 1% and the Z score was -0.28.
